Assay results from the supplement of paper PMC3334620.
In all, about 33,000 sequences were measured (“E-score (-0.5 to 0.5)”: median about -0.032, highest 2% from about 0.36 on). Some of the results follow.

Each sequence was assayed against T1, Sko1 (UniProt Q02100) (assay: PBM E-score (8-mer binding enrichment) (E-score (-0.5 to 0.5)); higher = stronger / more preferred TF binding; most listed sequences are background and not binding sites). Settings: protein concentration: 200 nM; construct: GST-full length.
T1 sequence: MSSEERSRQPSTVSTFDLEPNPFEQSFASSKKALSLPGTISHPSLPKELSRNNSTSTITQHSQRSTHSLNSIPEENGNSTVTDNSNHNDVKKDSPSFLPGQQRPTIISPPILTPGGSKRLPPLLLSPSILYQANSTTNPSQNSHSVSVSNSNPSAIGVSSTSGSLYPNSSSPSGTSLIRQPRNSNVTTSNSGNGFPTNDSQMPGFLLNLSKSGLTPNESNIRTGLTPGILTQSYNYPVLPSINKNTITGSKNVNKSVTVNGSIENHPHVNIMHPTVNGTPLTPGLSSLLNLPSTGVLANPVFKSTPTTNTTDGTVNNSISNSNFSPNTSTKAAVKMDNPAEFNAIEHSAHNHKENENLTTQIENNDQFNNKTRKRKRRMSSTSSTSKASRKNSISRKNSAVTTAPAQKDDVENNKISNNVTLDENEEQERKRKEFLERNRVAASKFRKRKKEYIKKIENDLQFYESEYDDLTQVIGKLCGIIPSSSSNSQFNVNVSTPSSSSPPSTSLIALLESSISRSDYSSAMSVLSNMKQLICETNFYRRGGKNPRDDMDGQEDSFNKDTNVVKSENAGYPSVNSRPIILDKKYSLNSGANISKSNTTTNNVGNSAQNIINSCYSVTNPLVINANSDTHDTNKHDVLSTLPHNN
How it was run: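 Full-length yeast transcription factors or their DNA-binding domains, GST-tagged and expressed with PURExpress, were applied at about 100-200 nM to universal all-10-mer Agilent arrays. These arrays had been made double-stranded by primer extension on fresh or once-stripped slides. Detection used fluorescent anti-GST, normalisation used masliner, and E-scores for ungapped eight-base words pooled with reverse complements came from the Universal PBM Analysis Suite.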

Sequence	PBM E-score
AAAAGCGT	-0.00161
AAGCTATC	0.0359
GCCATGAC	0.356
GTAATTCA	0.268
CTGAGAGA	-0.0633
ATCAGTGC	0.0335
GTAACCGA	0.00384
ATGAAGTG	0.0412
ACCGCAAT	-0.00014
CATCTTGC	-0.0884
CCACAGCA	-0.0339
AGCGTAAA	0.189
ATGCTAAA	0.0827
CAAAAATC	0.131
AACACGCG	0.222
AAAATTTG	0.198
GGTGCGTA	0.299
ATGGTGTA	0.161
GGAGCACA	0.00796
AGCGCTCC	-0.146
GCGGATCA	-0.136
TCTCACCA	-0.00275
CATATGCC	0.122
ATTTGCCA	-0.0379

Sequence	PBM E-score
AGATAACT	-0.00913
AAGGGCCC	-0.197
ATCACGCG	0.254
AAAAGGTG	-0.141
ATACTAGG	-0.0879
GATGATAA	0.19
AACTGAGA	-0.0942
ATTCAAGG	-0.169
GGGCAACA	-0.101
CACAAGCA	-0.0467
ACCAGCGT	-0.0826
CCCAATCG	0.0285
AGCGTACA	0.0563
ATCATGGG	-0.172
AGAAGTTA	0.142
AGGCCCGG	-0.385
CCCCCGAG	-0.31
GGTAAGAC	-0.0543
CTCAAATA	0.0986
ACAAGGCC	-0.312
CTTATACA	-0.00768
AGCTGGAT	-0.123
CTGATTTA	0.0612
AAACTGGT	-0.168

Sequence	PBM E-score
CCTTGAAC	-0.131
GACACTGA	0.0601
ACCAATCC	-0.123
GAGTGTAC	0.0578
GTAGCACA	0.074
CACGTCCG	0.0824
AGAGTTTA	0.177
AGAGACAT	-0.106
AGTGACGA	0.419
CGGACGGA	-0.239
GGGGTTAA	-0.243
ATGTTCCG	-0.0811
AACCGGAT	-0.00689
ACAATTAG	0.0266
CCCGCACC	-0.201
GATCATCC	-0.196
CTCGCGCC	-0.288
AGCGACTA	-0.0851
ACATCCTA	0.174
CAAGGCTA	-0.0448
ACTCTTTA	-0.00867
GTGCGTGA	0.274
AATGCGTA	0.39
CCAGCGAC	-0.113

Sequence	PBM E-score
AAAAGACC	-0.0899
CATGCAAC	0.0918
AGTATAGG	-0.199
CTAATAAC	0.28
ATGCCGCC	-0.175
CTTGCATC	-0.136
CTTGCGAA	0.112
ATCGTCGG	-0.177
ACTCGTTC	0.087
ACTGCGTC	0.284
ACGGAAAT	0.226
GAACGCAA	0.18
AACAAAAA	0.168
AGGTTAGG	-0.106
ACCCAGGT	-0.355
GCGAGTCA	-0.0489
CGCAACTC	0.0789
TAGCACCA	0.0572
GTCGAATA	-0.0712
CATAATGG	0.0628
CACAGCGA	0.0659
CCGTTACC	-0.235
